# Source: the supplement of paper PMC3334620
# In all, about 33,000 sequences were measured (“E-score (-0.5 to 0.5)”: median about -0.012, highest 2% from about 0.27 on). Some of the results follow.
# Target: T1, Vhr1 (UniProt P40522)
# T1 sequence: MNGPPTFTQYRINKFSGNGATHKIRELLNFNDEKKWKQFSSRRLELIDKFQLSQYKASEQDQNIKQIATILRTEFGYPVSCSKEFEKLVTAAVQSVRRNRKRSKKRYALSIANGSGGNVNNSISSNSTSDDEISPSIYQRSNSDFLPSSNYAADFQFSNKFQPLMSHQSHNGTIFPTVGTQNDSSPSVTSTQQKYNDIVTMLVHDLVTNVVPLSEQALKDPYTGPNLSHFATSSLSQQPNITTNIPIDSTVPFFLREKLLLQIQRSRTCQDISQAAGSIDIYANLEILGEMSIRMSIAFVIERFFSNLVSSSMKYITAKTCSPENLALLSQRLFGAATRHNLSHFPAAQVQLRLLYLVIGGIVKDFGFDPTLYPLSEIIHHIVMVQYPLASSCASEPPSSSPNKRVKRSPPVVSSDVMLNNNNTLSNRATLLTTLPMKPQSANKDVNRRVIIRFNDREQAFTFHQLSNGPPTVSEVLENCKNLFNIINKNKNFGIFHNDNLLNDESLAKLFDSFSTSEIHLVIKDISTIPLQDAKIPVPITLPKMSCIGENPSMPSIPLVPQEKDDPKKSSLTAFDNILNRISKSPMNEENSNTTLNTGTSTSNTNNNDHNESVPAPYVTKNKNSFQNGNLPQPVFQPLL
# Assay: PBM E-score (8-mer binding enrichment) (E-score (-0.5 to 0.5)); higher = stronger / more preferred TF binding; most listed sequences are background and not binding sites
# Conditions: protein concentration: 200 nM; construct: GST-full length
# How it was run: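 Yeast transcription factors, full-length or as DNA-binding domains, were expressed with a GST tag using PURExpress in vitro transcription/translation. At about 100-200 nM they were applied to universal all-10-mer Agilent arrays, double-stranded by primer extension on fresh or once-stripped slides. Fluorescent anti-GST detected bound protein, and masliner normalised the scans. E-scores for ungapped eight-base words, pooled with reverse complements, came from the Universal PBM Analysis Suite.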
row,Sequence,PBM E-score
1,AATTTTCT,-0.243
2,AACAGTCT,-0.0629
3,GATCTAAC,-0.204
4,AATATATG,0.19
5,CCCGCCAC,0.321
6,AAAGGGCG,0.0461
7,TACGCCAA,-0.241
8,CTTCGTCA,0.0835
9,CGATACAC,-0.00965
10,CGCCGAGA,-0.0468
11,ATAAATCC,-0.0537
12,CCCGATTC,0.0194
13,AACAAAGT,0.155
14,ATTTGAAC,0.0616
15,ACACTGAC,0.239
16,CAAGCTCC,-0.168
17,AACTGTGC,-0.135
18,GTGCACTA,0.0224
19,AAGGAAGG,-0.209
20,GCTGTCAA,-0.125
21,TCAGAACA,0.00034
22,CACTAGTC,0.12
23,CCCACGGG,-0.00586
24,ACCAGTGC,-0.193
25,AAGTGAGT,0.171

row,Sequence,PBM E-score
1,CGGTAAGA,-0.211
2,TAAGTATA,0.0666
3,ATAGACCA,0.0646
4,TCCCCAGA,-0.109
5,ATCACCGA,0.107
6,GCGAGTAA,0.2
7,CATTGCGC,0.0481
8,GGCACCAC,-0.0489
9,AATTCCCT,-0.19
10,AACACACC,0.27
11,ATATTGCC,-0.0289
12,ACAAAGTA,0.0223
13,AGTACATC,0.0779
14,AGGCGCCC,-0.173
15,CGACAGTA,0.0703
16,AGTAATAC,0.0646
17,AAAGTAAC,-0.04
18,ACCTCTAG,-0.0496
19,AGTGAATA,0.00606
20,GGCGCAAC,-0.0634
21,ACGCCCAA,0.107
22,CGGCTGGA,0.0242
23,CATCAAAC,0.0574
24,GGGTTGGA,-0.0905
25,CAGTGGGA,0.163

row,Sequence,PBM E-score
1,AGTAAGAT,0.00823
2,AACTCTCA,-0.222
3,CTCCTGGC,0.00698
4,GACTGGAA,-0.13
5,CCCACAAA,0.205
6,CTTACGGA,-0.244
7,CGGAGAAG,-0.0574
8,AAATAGTG,-0.149
9,AGGGCAGA,0.0882
10,ACCCTGGA,-0.0995
11,TCTACCAA,-0.114
12,ATCGAGCG,-0.0419
13,CCCTGTCA,-0.0257
14,GGTTGTTA,0.163
15,CGAACCAG,0.0659
16,AATGCAAT,-0.256
17,AATCGGAT,-0.0499
18,CCAGTCGA,0.0785
19,GGGAACGA,0.051
20,AGTCTTCG,0.138
21,GATCTACA,-0.016
22,ACAGACCT,0.113
23,ACGGTTGA,0.0296
24,AGTACCCG,0.0333
25,AAAATTCA,-0.128

row,Sequence,PBM E-score
1,CAAAGGTC,-0.211
2,CACTGCGA,-0.086
3,ACGTGCTA,-0.192
4,CTTCTCAA,-0.0692
5,GTAATGAC,0.0749
6,GTTTTACA,-0.0714
7,CTCTATTC,-0.146
8,ATCCACGC,-0.162
9,GCATCGGC,0.0389
10,GGCGGAGA,0.0701
11,GTCTAAGA,0.00684
12,GTAGGTTA,0.0409
13,CTGGGTTC,0.0965
14,AGGAGACA,0.058
15,GTAAGAGA,-0.242
16,ACCTTTAT,-0.21
17,GCGTACCC,-0.107
18,CAATTCGC,0.00462
19,CTCTAGCC,-0.167
20,ATCCAGGC,0.0317
21,GGAAGCCC,-0.111
22,CGCGTTGA,0.0186
23,CCGAAGAC,0.0787
24,CGATATAC,0.0742
25,GGTCCCTA,-0.0992

row,Sequence,PBM E-score
1,ACCGGAGA,0.26
2,GCCCTCAA,-0.378
3,CTGTCGTA,-0.11
4,CTCGCCGC,0.0777
5,CGTAGAGA,-0.127
6,AACCCGAG,-0.0167
7,AAAAAGAT,-0.155
8,CTCCCCGC,0.325
9,AGGAAGTA,-0.051
10,AACATGCG,0.105
11,CCTAACGA,-0.106
12,GTTCCGTA,0.0278
13,ACTAGAAG,-0.225
14,AGGATGCG,-0.0107
15,CGGCTAAA,0.0957
16,GACGCGTC,-0.146
17,AAACACTA,0.0776
18,GTATACCA,0.195
19,AAAAGGGA,-0.186
20,ACGCATCA,0.11
21,CAGTTGAA,-0.098
22,ACTGTAAC,0.107
23,AAGTAGCG,-0.207
24,CGGTCAAG,-0.154
25,GGCCCCGA,-0.136

row,Sequence,PBM E-score
1,GAACCAGA,-0.219
2,AGATAGAG,-0.0614
3,CAAGTTCC,-0.216
4,TGTTTGAA,-0.0523
5,AGAATTCG,-0.0154
6,GGGGGTCA,-0.104
7,ACGTGGTG,-0.0713
8,AGTTTTAC,-0.0563
9,CTTGACCA,-0.0241
10,CGCGTTGC,0.00751
11,ATGGCACC,-0.0976
12,CGGGTGCC,-0.154
13,GTCCAAAC,-0.0771
14,AACAGAGG,-0.0546
15,ACTCACAC,0.39
16,ATAAAGCG,-0.091
17,AGTTCGCG,0.105
18,AAGCAACA,0.0226
19,CAGGGTGC,-0.0301
20,CCGTCCGC,-0.151
21,GATGAGAA,-0.147
22,GTACCATA,0.0957
23,AGAGGTTG,-0.0584
24,AAATAGAC,-0.0687
25,CGTACGTC,-0.193

row,Sequence,PBM E-score
1,CCCCGAGG,-0.0327
2,CGGTTAGA,-0.0685
3,AACGCCCG,-0.132
4,CATGAAGC,-0.0411
5,ACGTTCTG,0.0673
6,ACATTGCA,0.138
7,ATCCGCAT,0.152
8,CTAGAACC,-0.117
9,GGGCCGAA,-0.0658
10,AAACTTGT,-0.0432
11,CGATCTCA,-0.00966
12,GGCTCCAC,-0.0342
13,GCGAGGAA,-0.0293
14,TATGTTGA,0.0315
15,CCAGGACA,-0.0732
16,GACGTCCA,-0.174
17,GATGGTCC,-0.126
18,ACGCAATA,0.118
19,GCTCGAAC,-0.0737
20,AGTCAAGG,0.196
21,ACACTTAC,-0.0548
22,GGGTTCAC,0.0756
